Measurements published in US20210221866A1, “PROTEASE-RESISTANT LIPIDATED GLP-1 ANALOGS” (MEDIMMUNE LIMITED, priority 2015, published 2021).
Like-named read-outs stand apart in the source and are kept apart here. At least one peptide structure holds a part that was inferred or is arguable (an end, a ring closure or a residue). Numbered stars: 1 amine (or outer) side, 2 acyl side, 3 side chain; on linkers, the order of the positions; unused ones are H or OH. Square brackets hold non-standard residues; d marks the D form. Side chains are listed from the residue outwards. Peptide text beside a SMILES is read from it. * marks the point of attachment. C18 diacid = O=C(O)CCCCCCCCCCCCCCCCC(=O)*; C16 diacid = O=C(O)CCCCCCCCCCCCCCC(=O)*; γGlu = O=C(O)[C@H](CCC(=O)[*:2])N[*:1]; Palmitoyl = CCCCCCCCCCCCCCCC(=O)*; αMeF = C[C@](N)(Cc1ccccc1)C(=O)O; αMeK = C[C@](N)(CCCCN)C(=O)O; αMeS = C[C@](N)(CO)C(=O)O; AEEA = NCCOCCOCC(=O)O; Aib = CC(C)(N)C(=O)O

Key:
Assay type in all cases: cell-based
[1] = biological target: T1, human glucagon receptor (GCGR) (Homo sapiens, UniProt P47871); assay: cAMP assay, human GCGR cells
T1 construct: expressed in transfected cells; host or cells: HEK293 cells or CHO cells
Method: (§1) Sample dilutions are made in duplicate.
(§2) A frozen cryo-vial of cells expressing the receptor of interest is thawed rapidly in a water-bath, transferred to pre-warmed assay buffer and spun at 240×g for 5 minutes. Cells are re-suspended in assay buffer at a batch-dependent optimized concentration (e.g. hGCGR cells at 2×10^5 cells/ml, hGLP-1R and hGIPR cells at 1×10^5 cells/ml).
(§3) To this, 5 μL cell suspension is added and the plates incubated at room temperature for 30 minutes.
(§4) cAMP levels are measured using a commercially available cAMP dynamic 2 HTRF kit (Cisbio, Cat #62AM4PEJ), following the two step protocol as per manufacturer's recommendations. In brief; anti-cAMP cryptate (donor fluorophore) and cAMP-d2 (acceptor fluorophore) are made up separately by diluting each 1/20 in conjugate & lysis buffer provided in the kit. 5 μL anti-cAMP cryptate is added to wells of the assay plate, and 5 μL cAMP-d2 is added to wells except non-specific binding (NSB) wells, to which conjugate and lysis buffer are added. […] EC50 values of the synthetic peptides determined in cAMP assays are then determined.
(§5) Data is transformed to % Delta F as described in the manufacturer's guidelines and analyzed by 4-parameter logistic fit to determine EC50 values. […] To compare the balance of activities at the GLP-1R and GCGR between different peptides and across different conditions, these can be correlated, where the EC50's are related to those of comparator peptides.

[2] = biological target: T2, human GLP-1 receptor (GLP-1R) (Homo sapiens, UniProt P43220); assay: cAMP assay, human GLP-1R cells; conditions: Table 9, bis-lipidated peptides
T2 construct: expressed in transfected cells; host or cells: HEK293 cells or CHO cells
Method: as §1, §2, §3, §4, §5

[3] = biological target: T3, human glucose-dependent insulinotropic peptide receptor (GIPR) (Homo sapiens, UniProt P48546); assay: cAMP assay, human GIPR cells; conditions: Table 9, bis-lipidated peptides
T3 construct: expressed in transfected cells; host or cells: HEK293 cells or CHO cells
T3 sequence (P48546 22-466): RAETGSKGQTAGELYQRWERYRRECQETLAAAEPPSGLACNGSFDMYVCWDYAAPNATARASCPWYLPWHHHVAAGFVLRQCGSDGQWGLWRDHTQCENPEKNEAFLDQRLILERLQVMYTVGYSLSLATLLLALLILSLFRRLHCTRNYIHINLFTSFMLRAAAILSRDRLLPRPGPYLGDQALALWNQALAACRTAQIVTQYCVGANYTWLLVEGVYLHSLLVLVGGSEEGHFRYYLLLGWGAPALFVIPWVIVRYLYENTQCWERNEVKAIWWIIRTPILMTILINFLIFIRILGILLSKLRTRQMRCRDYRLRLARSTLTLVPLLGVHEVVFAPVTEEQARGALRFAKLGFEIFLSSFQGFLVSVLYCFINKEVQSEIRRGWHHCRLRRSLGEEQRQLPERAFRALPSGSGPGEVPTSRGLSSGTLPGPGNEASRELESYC
Method: as §1, §2, §3, §4, §5

[4] = cAMP activity, first determination (n1), read-out: Primary assay EC50 Gluc-R
[5] = mean of n1 and n2, read-out: Primary assay EC50 Mean pM GLP-1R
[6] = replicate n1, read-out: Primary assay EC50 GLP-1R n1
[7] = replicate n2, read-out: Primary assay EC50 GLP-1R n2
[8] = first replicate, read-out: Primary assay EC50 GIP-R (n1)
[9] = second replicate, read-out: Primary assay EC50 GIP-R (n2)
[10] = Table 9, bis-lipidated peptides, first replicate, read-out: Primary assay EC50 Gluc-R (n1)
[11] = Table 9, bis-lipidated peptides, second replicate, read-out: Primary assay EC50 Gluc-R (n2)

T2 sequence (P43220 24-463): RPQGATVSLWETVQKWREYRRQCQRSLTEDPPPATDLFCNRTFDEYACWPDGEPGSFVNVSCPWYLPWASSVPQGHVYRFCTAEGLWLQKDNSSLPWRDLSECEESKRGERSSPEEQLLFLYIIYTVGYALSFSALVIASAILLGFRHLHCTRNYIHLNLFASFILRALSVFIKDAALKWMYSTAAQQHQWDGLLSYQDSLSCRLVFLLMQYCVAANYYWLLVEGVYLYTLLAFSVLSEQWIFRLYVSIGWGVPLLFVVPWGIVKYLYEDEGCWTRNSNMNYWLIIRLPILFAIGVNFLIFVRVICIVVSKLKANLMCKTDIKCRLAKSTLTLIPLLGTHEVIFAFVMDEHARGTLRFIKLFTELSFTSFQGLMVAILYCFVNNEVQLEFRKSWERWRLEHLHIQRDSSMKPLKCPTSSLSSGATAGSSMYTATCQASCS
T1 sequence (P47871 26-477): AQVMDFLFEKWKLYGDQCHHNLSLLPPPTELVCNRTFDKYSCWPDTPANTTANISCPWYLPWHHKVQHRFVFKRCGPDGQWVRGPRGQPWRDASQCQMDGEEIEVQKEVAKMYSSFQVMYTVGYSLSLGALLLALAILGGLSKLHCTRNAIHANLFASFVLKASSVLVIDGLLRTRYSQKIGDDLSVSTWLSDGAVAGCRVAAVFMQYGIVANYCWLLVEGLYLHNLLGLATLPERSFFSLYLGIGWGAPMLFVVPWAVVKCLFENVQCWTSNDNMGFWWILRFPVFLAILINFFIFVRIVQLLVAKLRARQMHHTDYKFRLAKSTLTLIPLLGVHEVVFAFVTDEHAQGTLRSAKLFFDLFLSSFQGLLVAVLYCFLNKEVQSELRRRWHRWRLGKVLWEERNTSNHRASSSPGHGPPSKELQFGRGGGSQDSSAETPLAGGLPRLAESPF

Q: Which EC50 [1, 4] does the source give for `CCCCCCCCCCCCCCCC(=O)N[C@@H](CCC(=O)NCCCC[C@H](NC(=O)[C@](C)(Cc1ccccc1)NC(=O)[C@H](CO)NC(=O)CNC(=O)[C@H](CCC(=O)O)NC(=O)C(C)(C)NC(=O)[C@@H](N)Cc1c[nH]cn1)C(=O)N[C@@H](CO)C(=O)N[C@@H](CC(=O)O)C(=O)N[C@H](C(=O)N[C@@](C)(CO)C(=O)N[C@@H](CO)C(=O)N[C@@](C)(Cc1ccccc1)C(=O)N[C@@H](CC(C)C)C(=O)N[C@@H](CCC(=O)O)C(=O)NCC(=O)N[C@@H](CCC(=O)O)C(=O)N[C@@H](C)C(=O)N[C@@H](C)C(=O)N[C@@](C)(CCCCN)C(=O)N[C@@H](CCC(=O)O)C(=O)N[C@@](C)(Cc1ccccc1)C(=O)N[C@H](C(=O)N[C@@H](C)C(=O)N[C@@](C)(Cc1ccccc1)C(=O)N[C@H](C(=O)N[C@H](C(=O)N[C@@](C)(CCCCN)C(=O)NCC(=O)NCC(N)=O)C(C)C)C(C)C)[C@@H](C)CC)C(C)C)C(=O)O` [compound 93] (H-H[Aib]EGS[αMeF]K([γGlu-Palmitoyl])SDV[αMeS]S[αMeF]LEGEAA[αMeK]E[αMeF]IA[αMeF]VV[αMeK]GG-NH2; N-terminus assumed) here?
A: ≥ 28000 pM

Q: How did the EC50 [1, 4] turn out when `CC[C@H](C)[C@H](NC(=O)[C@](C)(Cc1ccccc1)NC(=O)[C@H](CCC(=O)O)NC(=O)[C@](C)(CCCCN)NC(=O)[C@H](C)NC(=O)[C@H](C)NC(=O)[C@H](CCC(=O)O)NC(=O)CNC(=O)[C@H](CCC(=O)O)NC(=O)[C@H](CC(C)C)NC(=O)[C@](C)(Cc1ccccc1)NC(=O)[C@H](CO)NC(=O)[C@](C)(CO)NC(=O)[C@@H](NC(=O)[C@H](CC(=O)O)NC(=O)[C@H](CO)NC(=O)[C@H](CCCCNC(=O)COCCOCCNC(=O)COCCOCCNC(=O)CC[C@H](NC(=O)CCCCCCCCCCCCCCCCC(=O)O)C(=O)O)NC(=O)[C@](C)(Cc1ccccc1)NC(=O)[C@H](CO)NC(=O)CNC(=O)[C@H](CCC(=O)O)NC(=O)C(C)(C)NC(=O)[C@@H](N)Cc1c[nH]cn1)C(C)C)C(=O)N[C@@H](C)C(=O)N[C@@](C)(Cc1ccccc1)C(=O)N[C@H](C(=O)N[C@H](C(=O)N[C@@](C)(CCCCN)C(=O)NCC(=O)NCC(N)=O)C(C)C)C(C)C` [compound 122] (H-H[Aib]EGS[αMeF]K([AEEA-AEEA-γGlu-C18 diacid])SDV[αMeS]S[αMeF]LEGEAA[αMeK]E[αMeF]IA[αMeF]VV[αMeK]GG-NH2; N-terminus assumed) was run?
A: ≥ 25000 pM

Q: `CC[C@H](C)[C@H](NC(=O)[C@H](Cc1ccccc1)NC(=O)[C@H](CCC(=O)O)NC(=O)[C@](C)(CCCCN)NC(=O)[C@H](C)NC(=O)[C@H](C)NC(=O)[C@H](CCC(=O)O)NC(=O)CNC(=O)[C@H](CCC(=O)O)NC(=O)[C@H](CC(C)C)NC(=O)[C@H](Cc1ccc(O)cc1)NC(=O)[C@H](CO)NC(=O)[C@H](CO)NC(=O)[C@H](CCCCNC(=O)COCCOCCNC(=O)COCCOCCNC(=O)CC[C@H](NC(=O)CCCCCCCCCCCCCCC(=O)O)C(=O)O)NC(=O)[C@H](CC(=O)O)NC(=O)[C@H](CO)NC(=O)[C@@H](NC(=O)[C@](C)(Cc1ccccc1)NC(=O)[C@H](CO)NC(=O)CNC(=O)[C@H](CCC(=O)O)NC(=O)C(C)(C)NC(=O)[C@@H](N)Cc1c[nH]cn1)[C@@H](C)O)C(=O)N[C@@H](C)C(=O)N[C@@H](Cc1c[nH]c2ccccc12)C(=O)N[C@@H](CCCCNC(=O)COCCOCCNC(=O)COCCOCCNC(=O)CC[C@H](NC(=O)CCCCCCCCCCCCCCC(=O)O)C(=O)O)C(=O)N[C@H](C(=O)N[C@@H](CCC(=O)O)C(=O)NCC(=O)NCC(N)=O)C(C)C` [compound 261] (H-H[Aib]EGS[αMeF]TSDK([AEEA-AEEA-γGlu-C16 diacid])SSYLEGEAA[αMeK]EFIAWK([AEEA-AEEA-γGlu-C16 diacid])VEGG-NH2; N-terminus assumed) was tested. Which EC50 [2, 5] did it give?
A: 418 pM

Q: What about the EC50 [2, 6] of the same compound?
A: 414 pM

Q: What about the EC50 [2, 7] of the same compound?
A: 422 pM

Q: And the EC50 [3, 8]?
A: ≥ 23000 pM

Q: And the EC50 [3, 9]?
A: ≥ 23000 pM

Q: What about the EC50 [1, 10] of the same compound?
A: ≥ 23000 pM

Q: What about the EC50 [1, 11] of the same compound?
A: ≥ 23000 pM

Q: With `CC[C@H](C)[C@H](NC(=O)[C@H](Cc1ccccc1)NC(=O)[C@H](CCC(=O)O)NC(=O)[C@](C)(CCCCN)NC(=O)[C@H](C)NC(=O)[C@H](C)NC(=O)[C@H](CCC(=O)O)NC(=O)CNC(=O)[C@H](CCC(=O)O)NC(=O)[C@H](CC(C)C)NC(=O)[C@H](CCCCNC(=O)COCCOCCNC(=O)COCCOCCNC(=O)CC[C@H](NC(=O)CCCCCCCCCCCCCCC(=O)O)C(=O)O)NC(=O)[C@H](CO)NC(=O)[C@](C)(CO)NC(=O)[C@@H](NC(=O)[C@H](CC(=O)O)NC(=O)[C@H](CO)NC(=O)[C@@H](NC(=O)[C@](C)(Cc1ccccc1)NC(=O)[C@H](CO)NC(=O)CNC(=O)[C@H](CCC(=O)O)NC(=O)C(C)(C)NC(=O)[C@@H](N)Cc1c[nH]cn1)[C@@H](C)O)C(C)C)C(=O)N[C@@H](C)C(=O)N[C@@H](CCCCNC(=O)COCCOCCNC(=O)COCCOCCNC(=O)CC[C@H](NC(=O)CCCCCCCCCCCCCCC(=O)O)C(=O)O)C(=O)N[C@H](C(=O)N[C@H](C(=O)N[C@@H](CCC(=O)O)C(=O)NCC(=O)NCC(N)=O)C(C)C)C(C)C` [compound 266] (H-H[Aib]EGS[αMeF]TSDV[αMeS]SK([AEEA-AEEA-γGlu-C16 diacid])LEGEAA[αMeK]EFIAK([AEEA-AEEA-γGlu-C16 diacid])VVEGG-NH2; N-terminus assumed) as the compound, how does the EC50 [2, 5] read?
A: 479 pM

Q: And the EC50 [2, 6]?
A: 400 pM

Q: What about the EC50 [2, 7] of the same compound?
A: 557 pM

Q: What about the EC50 [3, 8] of the same compound?
A: ≥ 22200 pM

Q: What about the EC50 [3, 9] of the same compound?
A: ≥ 22200 pM

Q: What about the EC50 [1, 10] of the same compound?
A: ≥ 22200 pM

Q: And the EC50 [1, 11]?
A: ≥ 22200 pM

Q: Which results are given for `CC[C@H](C)[C@H](NC(=O)[C@H](Cc1ccccc1)NC(=O)[C@H](CCC(=O)O)NC(=O)[C@](C)(CCCCN)NC(=O)[C@H](C)NC(=O)[C@H](C)NC(=O)[C@H](CCC(=O)O)NC(=O)CNC(=O)[C@H](CCC(=O)O)NC(=O)[C@H](CCCCNC(=O)COCCOCCNC(=O)COCCOCCNC(=O)CC[C@H](NC(=O)CCCCCCCCCCCCCCC(=O)O)C(=O)O)NC(=O)[C@H](Cc1ccc(O)cc1)NC(=O)[C@H](CO)NC(=O)[C@](C)(CO)NC(=O)[C@@H](NC(=O)[C@H](CC(=O)O)NC(=O)[C@H](CO)NC(=O)[C@@H](NC(=O)[C@](C)(Cc1ccccc1)NC(=O)[C@H](CO)NC(=O)CNC(=O)[C@H](CCC(=O)O)NC(=O)C(C)(C)NC(=O)[C@@H](N)Cc1c[nH]cn1)[C@@H](C)O)C(C)C)C(=O)N[C@@H](CCCCNC(=O)COCCOCCNC(=O)COCCOCCNC(=O)CC[C@H](NC(=O)CCCCCCCCCCCCCCC(=O)O)C(=O)O)C(=O)N[C@@H](Cc1c[nH]c2ccccc12)C(=O)N[C@H](C(=O)N[C@H](C(=O)N[C@@H](CCC(=O)O)C(=O)NCC(=O)NCC(N)=O)C(C)C)C(C)C` [compound 271] (H-H[Aib]EGS[αMeF]TSDV[αMeS]SYK([AEEA-AEEA-γGlu-C16 diacid])EGEAA[αMeK]EFIK([AEEA-AEEA-γGlu-C16 diacid])WVVEGG-NH2; N-terminus assumed)?
A: EC50 [2, 5]: 820 pM; EC50 [2, 6]: 891 pM; EC50 [2, 7]: 750 pM; EC50 [3, 8]: ≥ 21400 pM; EC50 [3, 9]: ≥ 21400 pM; EC50 [1, 10]: ≥ 21400 pM; EC50 [1, 11]: ≥ 21400 pM
